Data as given in article PMC4336329 (PLoS ONE, 2015).
Out of some 310,000 compounds screened, about 2,200 (0.71%) showed an effect of 50% or more. The effect is printed as a negative number. This is one part of the list.

Target: human ether-à-go-go-related gene (hERG) potassium channel (human, UniProt Q12809)
Test: primary screen, population patch clamp on CHO cells stably expressing hERG

Sequence of human ether-à-go-go-related gene (hERG) potassium channel (Q12809 whole entry, looked up): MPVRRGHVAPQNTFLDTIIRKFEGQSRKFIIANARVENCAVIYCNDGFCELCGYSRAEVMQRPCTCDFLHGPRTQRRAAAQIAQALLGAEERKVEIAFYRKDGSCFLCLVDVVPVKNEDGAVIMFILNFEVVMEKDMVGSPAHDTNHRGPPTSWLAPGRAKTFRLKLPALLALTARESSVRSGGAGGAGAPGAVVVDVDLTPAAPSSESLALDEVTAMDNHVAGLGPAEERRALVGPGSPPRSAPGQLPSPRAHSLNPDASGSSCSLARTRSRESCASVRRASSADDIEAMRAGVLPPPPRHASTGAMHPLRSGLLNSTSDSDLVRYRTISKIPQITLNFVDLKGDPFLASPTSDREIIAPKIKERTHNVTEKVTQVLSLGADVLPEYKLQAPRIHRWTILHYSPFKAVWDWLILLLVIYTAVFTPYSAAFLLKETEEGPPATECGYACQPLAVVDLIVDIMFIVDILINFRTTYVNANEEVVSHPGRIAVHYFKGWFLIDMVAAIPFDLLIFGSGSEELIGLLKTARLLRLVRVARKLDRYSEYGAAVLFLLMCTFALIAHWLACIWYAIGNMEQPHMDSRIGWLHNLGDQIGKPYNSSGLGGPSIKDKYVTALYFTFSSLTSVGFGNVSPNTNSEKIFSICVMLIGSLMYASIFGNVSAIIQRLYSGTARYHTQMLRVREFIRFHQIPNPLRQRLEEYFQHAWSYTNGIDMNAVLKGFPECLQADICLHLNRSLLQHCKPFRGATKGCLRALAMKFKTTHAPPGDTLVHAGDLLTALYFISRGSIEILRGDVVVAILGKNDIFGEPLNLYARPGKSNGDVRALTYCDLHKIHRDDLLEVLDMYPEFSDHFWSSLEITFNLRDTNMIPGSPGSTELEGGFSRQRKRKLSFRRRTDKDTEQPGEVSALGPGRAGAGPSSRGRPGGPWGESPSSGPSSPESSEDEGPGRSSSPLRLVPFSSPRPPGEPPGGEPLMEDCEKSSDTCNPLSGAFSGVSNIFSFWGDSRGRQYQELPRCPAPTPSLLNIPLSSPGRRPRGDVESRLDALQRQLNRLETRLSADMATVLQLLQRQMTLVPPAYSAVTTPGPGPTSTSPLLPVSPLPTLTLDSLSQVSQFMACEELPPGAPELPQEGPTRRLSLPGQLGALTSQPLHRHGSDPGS

| Structure (SMILES) | hERG current change (%, negative = inhibition) at 1uM [%] |
| --- | --- |
| COc1cccc(N2CCN(Cc3nnnn3C3CCCCC3)CC2)c1 | 16.1 |
| CN(CC(=O)Nc1ccc(F)cc1)C(=O)CN1C(=O)NC2(CCCc3ccccc32)C1=O (stereo not shown) | 8.93 |
| COc1ccc(NC(=O)CSCC(=O)N(C)Cc2ccc3c(c2)OCCO3)cc1 | 8.7 |
| CC1CCCCN1CCNC(=O)c1ccc2c(c1)N(Cc1ccccc1)C(=O)c1ccccc1S2(=O)=O (stereo not shown) | 7.47 |
| Cc1cccc(OCCSc2cc(C)nc(N)n2)c1 | 0.701 |
| Cc1ccc([C@@H]2[C@@H]3C(=O)N(c4ccccc4)C(=O)[C@@H]3[C@]3(C)C(=O)N(CC4CC4)CC(=O)N23)o1 | 4.73 |
| O=C(O)CCNS(=O)(=O)c1ccc2c(c1)OCCCO2 | 14.8 |
| CN1C(=S)SC(/[N+]([O-])=C\c2cccs2)C1(C)C (stereo not shown) | 8.56 |
| CCN(CC)c1ccc(/C=C(\C#N)C(=O)NCc2ccco2)cc1 | 7.5 |
| CN(c1ccccc1)c1ccc(/C=C/[N+](=O)[O-])cc1 | 14.1 |
| Cc1cc(C)c(NC(=O)CCCOC(=O)C2=COCCO2)c(C)c1 | 12.7 |
| Cc1ccn2c(NC(=O)c3ccccc3)c(-c3cccs3)nc2c1 | 13.8 |
| Cn1c(SCc2cc(=O)n3cc(Br)ccc3n2)nnc1C1COc2ccccc2O1 (stereo not shown) | -37.1 |
| COc1cccc(NC(=O)N2CCCC2C(=O)NCC(C)C)c1 (stereo not shown) | 11 |
| CCC1=C(OC(=O)N(CC)CC)N2C(=O)OC(=NCc3ccccc3)[C@]2(C)[C@H]2C1=CC[C@H]1C(=O)NC(=O)[C@H]12 | 4.75 |
| CCn1cc(NC(=O)Nc2ccccc2C(=O)OC)c(C(N)=O)n1 | 9.52 |
| CCCN1CCN(C(c2cc3cc4c(cc3[nH]c2=O)OCO4)c2nnnn2C(C)(C)C)CC1 (stereo not shown) | 4.99 |
| COC(=O)c1cc(NC(=O)CN2CCN(C(C)=O)CC2)cc(C(=O)OC)c1 | 7.76 |
| C=CCN1c2ccccc2[C@]23C[C@@H](C(=O)OC)N(C(C)=O)C2=NC(C(=O)OC)=C(C(=O)OC)[C@H]13 | -8.72 |
| CCCCn1c(N)c(N(CCOC)C(=O)c2ccc(NC3CC3)c([N+](=O)[O-])c2)c(=O)[nH]c1=O | 13.1 |
| Cc1ccccc1CS(=O)(=O)CCC(=O)NCCN1CCN(c2cccc(Cl)c2)CC1 | -5.7 |
| Oc1ccc(O)c(/C(=N/Nc2ccccc2)c2ccccc2)c1 | 13.2 |

| Structure (SMILES) | hERG current change (%, negative = inhibition) at 1uM [%] |
| --- | --- |
| CCc1nnc(NS(=O)(=O)c2ccc(NC(=O)OC)cc2)s1 | 14.7 |
| COc1ccc(-n2c(Cn3nc(C(F)(F)F)cc3C)n[nH]c2=S)cc1 | 20.9 |
| O=S(=O)(c1ccc(OC(F)(F)F)cc1)N1CCCC(N2CCOCC2)C1 (stereo not shown) | 3.2 |
| C=CCSc1n[nH]c(-c2ccc(OC)cc2)n1 | 10.5 |
| Cc1ccnc(SCC(=O)N2CCc3ccccc32)n1 | 14.4 |
| COc1cccc(C(=O)NCCS(=O)(=O)NCc2cccnc2)c1 | 3.6 |
| Cc1ccc(/C=C2/SC(=S)N(C3CCCCC3)C2=O)o1 | -5.55 |
| CN(C)C(=O)CNC(=O)CN1C(=O)NC2(CCCc3sccc32)C1=O (stereo not shown) | 1.4 |
| COc1ccc(/C=C(\NC(=O)c2ccccc2)C(=O)NNC(=O)CCN2CCOCC2)cc1 | -0.0338 |
| CC(OC(=O)c1cc[n+]([O-])cc1)C(=O)NCc1ccccc1 (stereo not shown) | 12 |
| CCN(c1ccccc1)S(=O)(=O)c1ccc(NCC2COc3ccccc3O2)nc1 (stereo not shown) | 6.64 |
| O=C(Nc1ccc(F)cc1)Nc1ccc(NC(=O)c2ccccc2O)cc1 | 12.5 |
| CCC(=O)N(Cc1cc2ccccc2[nH]c1=O)c1ccc(OC)cc1 | 1.87 |
| C1=C(CCNc2nnnn2-c2ccccc2)CCCC1 | 6.46 |
| COc1ccc(NC(=O)c2c(-c3c(Cl)cccc3Cl)noc2C)cn1 | 2.57 |
| CN(CC(=O)Nc1nc2ccccc2s1)S(=O)(=O)c1ccc(Br)cc1 | -5.56 |
| O=C1CC(c2ccccc2)Cc2nc(N3CCc4ccccc4C3)ncc21 (stereo not shown) | 6.07 |
| O=C(NC1CONC1=O)OCC(Cl)(Cl)Cl (stereo not shown) | 14.3 |
| CCN1C(=O)[C@H]2[C@@H](c3ccc(C)cc3)N3C(=O)N(c4ccccc4)C(=O)[C@@]3(Cc3ccc(Cl)cc3)[C@H]2C1=O | 3.47 |
| COc1ccc2[nH]cc(CCN3C(=O)c4ccc(C(=O)O)cc4C3=O)c2c1 | 14.1 |
| CCN(CC)CCNC(=O)C1CCN(S(=O)(=O)N2CCCCC2)CC1 | 4.23 |
| C=CCNC(=O)NC(=O)COC(=O)/C(C#N)=C/c1cc(C)n(CC(C)C)c1C | -4.08 |

| Structure (SMILES) | hERG current change (%, negative = inhibition) at 1uM [%] |
| --- | --- |
| Cc1nnc(SCc2nc3scc(-c4ccccc4)c3c(=O)[nH]2)s1 | 9.19 |
| CCOC(=O)Cc1csc(NC(=O)Cc2ccc(Cl)cc2)n1 | 4.82 |
| O=C(COC(=O)c1ccccc1)NCCC1=CCCCC1 | 9.18 |
| Cc1ccc(C(=O)Nc2ccc(-c3csc(C)n3)cc2)cc1 | 9.75 |
| COc1ccc(S(=O)(=O)Nc2ccccc2N2CCOCC2)cc1OC | 13.1 |
| Cc1cc(C)c(S(=O)(=O)N(C)CC(=O)NCc2ccncc2)c(C)c1 | 5.74 |
| CC(=O)c1cn(C)c(=O)[nH]c1=O | 14.4 |
| CCOC(=O)N1CCN(Cc2cn[nH]c2-c2ccc(-c3ccccc3)cc2)CC1 | 7.03 |
| CCc1nnc(NC(=O)CSc2nnc(-c3cc4ccccc4cc3O)n2CCOC)s1 | 2.7 |
| Cc1cccc(Cc2c(C)nc3c(C(=O)NCc4ccco4)cnn3c2C)c1 | -7.73 |
| Cc1cccc(NC(=O)c2ccc3c(c2)CCN3S(C)(=O)=O)c1C | 18.4 |
| CN1CCN(C(=O)CSc2nc(-c3ccncc3)ccc2C#N)CC1 | -3.13 |
| O=C(CSc1ncccn1)NC(=O)NCc1ccccc1 | 24.7 |
| O=C(NCCc1ccccc1)C1CCCN(S(=O)(=O)c2cccnc2)C1 (stereo not shown) | 9.82 |
| COC(=O)C1=C(C)N(C)C(=O)NC1c1c(O)ccc2ccccc12 (stereo not shown) | 6.78 |
| Cc1noc(C)c1S(=O)(=O)N1CCC(C(=O)NC2CCCc3ccccc32)CC1 (stereo not shown) | 9.97 |
| O=C(CNC(=O)c1ccccc1F)Nc1ccccc1C(F)(F)F | 11.8 |
| CCn1c(SCC(=O)Nc2nncs2)nnc1C(C)NC(=O)c1ccccc1Br (stereo not shown) | 19.3 |
| Cc1cc(NCCCN2CCOCC2)n2c(nc3ccccc32)c1C#N | -0.298 |
| O=C(NCCCN1CCCC1=O)c1ccc(CNS(=O)(=O)c2ccc(F)cc2)cc1 | 2.82 |
| COc1ccc(OC)c(-c2nc3cc4ccccc4cc3nc2-c2ccccc2)c1 | 7.79 |
| O=C(O)C1=C[C@@H](C2CC2)C[C@@H](OCCCCO)O1 | 10.7 |

| Structure (SMILES) | hERG current change (%, negative = inhibition) at 1uM [%] |
| --- | --- |
| C=CCn1c(O)c(C(CC)=Nc2ccc(N(CC)CC)cc2)c(=O)[nH]c1=O | 9.31 |
| O=C(NCCCn1ccnc1)c1cccc(Br)c1 | 6.56 |
| COP(=O)(OC)C(NC(=O)Nc1ccccc1)c1ccccc1 (stereo not shown) | 5.35 |
| Cc1ccc(Nc2nnc(SCn3nnc4ccccc4c3=O)s2)cc1 | 7.8 |
| CC1Cc2ccccc2N1C(=O)CSc1ncccn1 (stereo not shown) | 11 |
| CC1C(=O)C(C)(C)C(=O)OC1c1ccc([N+](=O)[O-])cc1 (stereo not shown) | 9.08 |
| COC(=O)c1sc(C(F)(F)F)c(-c2ccccc2)c1S(=O)(=O)N(C)C | 10.7 |
| COc1ccc(N(CC(=O)Nc2ccc(C)cc2)S(=O)(=O)c2c(C)noc2C)cc1 | 15.5 |
| O=C(NNc1nc(N2CCOCC2)nc(N2CCOCC2)n1)Nc1ccc(Cl)cc1 | 9.69 |
| Cc1cc(C)nc(SCc2ccc(C(=O)N/N=C/c3ccncc3)cc2)n1 | 3.7 |
| O=Cc1ccc(OC(=O)Cc2ccc(F)cc2)cc1 | 12.4 |
| Cc1ccc(Nc2cccc(C(F)(F)F)c2)nn1 | 5.93 |
| O=C(N/N=C/c1cnc(N2CCOCC2)s1)c1ccccc1 | 10.8 |
| Cc1nn(C)c(C(=O)N2CCN(C(=O)c3ccco3)CC2)c1Br | 11.7 |
| COc1ccccc1N=Cc1c(C)c(C#N)c2[nH]c3ccccc3n2c1=O | 9.35 |
| CCC1CCCCN1Cc1ccc(CNS(=O)(=O)c2ccc3c(c2)oc(=O)n3C)o1 (stereo not shown) | 3.82 |
| CC(=O)N=c1ncn(CC(COC(C)=O)OC(C)=O)c2nc[nH]c12 (stereo not shown) | 12.9 |
| CC(C)c1cc(CN2CCN(C3CCCC3)C(CCO)C2)[nH]n1 (stereo not shown) | 8.68 |
| C=CCOC(=O)C1=C[C@H](c2ccc(C(F)(F)F)cc2)C[C@H](OCCCCO)O1 | 9.6 |
| CC(C)CCOc1ccc(C(=O)NCCC(=O)N2CCOCC2)cc1 | 3.89 |
| COc1ccc(S(=O)(=O)n2ccc(-c3ccc(OCCN(C)c4ccccn4)cc3)n2)cc1 | 17.2 |
| O=C1CCCN1CCC12CC3CC(CC(C3)C1)C2 | 7.27 |
